Hit rate of the full screen: of about 310,000 compounds, about 2,200 (0.71%) showed an effect of 50% or more. Effects have a minus sign here. The list shows a part of the results.
molecular target: human ether-à-go-go-related gene (hERG) potassium channel (human, UniProt Q12809); assay: primary screen, population patch clamp on CHO cells stably expressing hERG
Sequence (Q12809 whole entry, looked up): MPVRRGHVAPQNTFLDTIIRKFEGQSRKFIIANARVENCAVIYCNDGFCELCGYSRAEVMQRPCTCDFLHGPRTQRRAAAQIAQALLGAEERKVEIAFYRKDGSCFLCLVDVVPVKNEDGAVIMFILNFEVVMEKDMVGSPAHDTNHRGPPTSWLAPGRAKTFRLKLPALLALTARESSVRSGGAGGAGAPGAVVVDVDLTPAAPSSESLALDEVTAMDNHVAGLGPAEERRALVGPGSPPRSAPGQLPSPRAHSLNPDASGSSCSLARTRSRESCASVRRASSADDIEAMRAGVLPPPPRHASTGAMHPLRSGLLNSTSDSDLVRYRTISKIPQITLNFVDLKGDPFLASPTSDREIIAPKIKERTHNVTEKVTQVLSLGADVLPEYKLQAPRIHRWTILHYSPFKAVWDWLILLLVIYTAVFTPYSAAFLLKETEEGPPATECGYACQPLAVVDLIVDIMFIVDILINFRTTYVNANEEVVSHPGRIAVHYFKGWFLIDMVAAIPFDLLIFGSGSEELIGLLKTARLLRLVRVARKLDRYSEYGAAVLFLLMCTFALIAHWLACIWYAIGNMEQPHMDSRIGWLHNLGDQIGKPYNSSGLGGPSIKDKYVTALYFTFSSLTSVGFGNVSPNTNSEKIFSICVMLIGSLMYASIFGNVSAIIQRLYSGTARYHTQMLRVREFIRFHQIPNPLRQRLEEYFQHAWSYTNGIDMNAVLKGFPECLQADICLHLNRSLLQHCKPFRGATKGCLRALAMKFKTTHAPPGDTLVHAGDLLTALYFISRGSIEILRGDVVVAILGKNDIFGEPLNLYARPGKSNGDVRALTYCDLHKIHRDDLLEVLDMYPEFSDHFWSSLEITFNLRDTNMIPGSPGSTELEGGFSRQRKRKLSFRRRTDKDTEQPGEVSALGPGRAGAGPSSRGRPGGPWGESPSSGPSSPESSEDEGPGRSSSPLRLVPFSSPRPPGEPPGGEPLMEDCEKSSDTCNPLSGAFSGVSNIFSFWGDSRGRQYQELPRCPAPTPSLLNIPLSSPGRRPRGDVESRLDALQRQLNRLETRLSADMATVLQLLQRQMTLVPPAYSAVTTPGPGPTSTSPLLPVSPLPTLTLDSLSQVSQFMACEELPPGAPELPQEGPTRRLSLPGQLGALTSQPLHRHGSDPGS

Row | SMILES | hERG current change (%, negative = inhibition) at 1uM [%]
1 | O=C(CSC1=NS(=O)(=O)c2cc(F)ccc2N1)NCc1ccccc1 | 4.41
2 | CCN(CC)CCCn1c(=S)[nH]c2ccccc2c1=O | -4.25
3 | CCN1C(=O)/C(=C2/C=CC=CN2C)OC1=S | 5.69
4 | O=C1C[C@@H]2c3c(cccc3CN1Cc1ccc(F)cc1)C[C@@H](O)[C@H]2O | 14.8
5 | CCn1nccc1C(=O)Nc1ccc(C)c(C)c1 | 8.5
6 | NS(=O)(=O)c1ccc(CCNC(=O)C(=O)NCC2OCCN2S(=O)(=O)c2cccs2)cc1 (stereo not drawn) | 10.5
7 | CCN(CC)S(=O)(=O)c1ccc(OC)c(NC(=O)c2cc(C)on2)c1 | 15.1
8 | CCOc1ccc(NC(=O)c2cc3ccccc3cc2O)cc1 | 13.5
9 | O=c1cc(N2CCc3ccccc3C2)[nH]c(=O)n1-c1ccc(Cl)cc1 | -1.15
10 | Cc1cc(OCC(=O)Nc2ccc(CN3CCOCC3)cc2)ccc1Cl | -6.46
11 | Cc1ccc(NC(=O)/C=C/c2cccs2)c([N+](=O)[O-])c1 | 0.868
12 | COCCN(C(=O)c1ccc(COc2ccccc2)o1)c1c(N)n(CC(C)C)c(=O)[nH]c1=O | 0.527
13 | CCc1ccc(CNc2ccc3c(c2)ncn3CC)cc1 | 4.56
14 | CCn1c(=O)c2sccc2n(CC(=O)NC2CCCCC2)c1=O | 12.3
15 | CCOCCCNC(=S)N1CCC(C(=O)c2ccc(C)cc2)CC1 | 9.71
16 | COc1ccc(NC(=O)COC(=O)CNS(=O)(=O)/C=C/c2ccccc2)cc1OC | 14.2
17 | Cc1c(Cl)cccc1S(=O)(=O)N1CCC(C(=O)NNC(=O)C2CC2)CC1 | 7.92
18 | COc1ccc(N2CC(NC(=O)NCCC(C)C)CC2=O)cc1 (stereo not drawn) | 7.06
19 | COc1ccc(Cl)cc1NC(=S)NCCN1CCOCC1 | 7.28
20 | NC(=S)Nc1cccc2cnccc12 | 5.05
21 | COc1ccc(CCNC(=O)COC(=O)c2cccs2)cc1OC | 13.9
22 | Cc1ccn2c(Nc3ccccc3C)c(-c3ccccn3)nc2c1 | 12.2
23 | CCOC(=O)c1ccccc1NC(=O)CSc1nnc(Cc2cccn2C)n1-c1ccc(F)cc1 | 1.76
24 | COc1cccc(NS(=O)(=O)c2cc3c(cc2C)NC(=O)CO3)c1 | -14

Row | SMILES | hERG current change (%, negative = inhibition) at 1uM [%]
25 | FC(F)(F)c1cc(-c2ccco2)nc(NCc2ccccc2)n1 | 9.99
26 | CSc1ccc(-c2nc(CN(C)C3CCOC3)c(C)o2)cc1 (stereo not drawn) | -1.74
27 | CCCCNC(=O)/C=C1\Sc2ccccc2NC1=O | 14.9
28 | CCOP(=O)(c1ccc(N(C)C)cc1)C(O)c1ccc(OC)cc1 (stereo not drawn) | 13
29 | c1csc(Cn2c(-c3cccs3)nc3ccccc32)c1 | -7.81
30 | CCC(CC(C)(C)O)C(=O)NNC(=S)Nc1ccccc1 (stereo not drawn) | 5.53
31 | COCCNC(=O)C/C(C)=N/NC(=O)C(=O)NC1CCCCC1 | 8
32 | COc1ccc(C(=O)NCCONC(=O)c2ccc(OC)cc2)cc1 | 3.45
33 | Cc1ccc(OCCCCCCN2CCNCC2)cc1.O=C(O)C(=O)O | 12.6
34 | CCCN1CN(Cc2ccco2)c2nc3ccccc3n2C1 | -19
35 | COc1ccccc1C(=O)NCCC(=O)NN1C(=O)NC2(CCCCC2)C1=O | 37.5
36 | CCCN1C(=O)c2cc(C(=O)Nc3ccc(OC)c(OC)c3)ccc2C1Nc1ccc(OC)c(OC)c1 (stereo not drawn) | 13.8
37 | CC(C)CC(c1nnnn1Cc1ccc(F)cc1)N1CCC(C(N)=O)CC1 (stereo not drawn) | 3.42
38 | COC(=O)CN1C(=O)CSc2ncccc21 | 5.78
39 | Cc1cc(Nc2nn(C)c(N)c2C#N)ccc1F | 0.986
40 | CCN1CCN(C(=O)COc2cc(=O)n(CC)c3ccccc23)CC1 | -1.05
41 | Cc1cc(=O)c2ccc(C(F)(F)F)cc2[nH]1 | 17.8
42 | O=C(CSc1nc2nc[nH]c2c(=O)[nH]1)NC1CCCCC1 | 3.7
43 | CC(=O)Nc1cc(C)c(S(C)(=O)=O)c(C)c1 | 10.5
44 | COc1cccc(CNC(=O)CCn2c(=O)oc3ccccc32)c1 | 11
45 | [O-]c1n[n+](-c2ccc(Cl)cc2)cc2ccccc12 | 10.1
46 | Cc1ccc(SC(C)C(=O)Nc2c(C)n(C)n(-c3ccccc3)c2=O)cc1 (stereo not drawn) | -1.87
47 | O=C(NNC(=O)c1ccccc1Cl)c1cccnc1 | 5.99
48 | O=C(NC1CCCCC1)c1ccc(S(=O)(=O)NCc2ccco2)cc1 | 16.7

Row | SMILES | hERG current change (%, negative = inhibition) at 1uM [%]
49 | CCCCNC(=S)N1CCC(Cc2ccccc2)CC1 | -0.89
50 | COC(=O)C(Cc1ccc(N(CCCl)CCCl)cc1)N=Cc1ccccc1O (stereo not drawn) | 15.7
51 | O=C(c1ccc(Cl)nc1)N1CCc2ccccc2C1 | 4.81
52 | Cc1ccc(O)c(NC(=O)c2cc(-c3ccccc3)on2)c1 | 13.8
53 | Cc1c(C(=O)Nc2ccccc2F)sc2ncn(CC(=O)N3CCOCC3)c(=O)c12 | 10.8
54 | Cn1c(=O)cc(OCC(=O)N2CCC3(CC2)OCCO3)c2ccccc21 | 13.4
55 | O=C(CN1C(=O)c2ccccc2C1=O)Nc1ccc2c(c1)OCO2 | 9.12
56 | O=C(OCC(=O)N1CCOCC1)c1cc2ccccc2oc1=O | 6.98
57 | CCn1c(SCC(=O)NCc2ccc3c(c2)OCO3)nc2c(c1=O)SCC2 | 10.6
58 | COc1cc(Cl)c(C)cc1NCC(=O)Nc1cccc(S(=O)(=O)N2CCCC2)c1 | 3.43
59 | CCNC(=O)CC1C(=O)N(c2ccc(C)cc2)C(=O)N1Cc1ccccn1 (stereo not drawn) | -10.2
60 | CC(=O)Nc1c(-c2ccccc2)c2cc(Br)ccc2[nH]c1=O | 12.6
61 | O=C(Nc1cccc(S(=O)(=O)NC2=NCCCCC2)c1)c1cc(-c2ccc(Cl)cc2)nc2ccccc12 | 8.83
62 | Cc1snc(SCC(=O)c2ccc(F)cc2)c1C#N | 6.32
63 | CC(=O)N(c1c(C)n(C)n(-c2ccccc2)c1=O)C1(C(=O)NC2CCCCC2)CCCCC1 | 4.78
64 | CC(C)(C)NC(=O)CSc1nnnn1C(C)(C)C | 3.17
65 | O=c1[nH][nH]cc1C=Nc1ccccc1Cl | 35.2
66 | COc1cccc(/C=N/NC(=O)CCc2n[nH]c(=O)[nH]c2=O)c1O | 3.5
67 | COC(=O)Cn1c(CN2CCN(C(=O)c3ccco3)CC2)nc2c1c(=O)n(C)c(=O)n2C | 11.1
68 | C=C(C)C1CC=C(CN2CC(C)OC(C)C2)CC1 (stereo not drawn) | 9.43
69 | CC12COC3(C(=O)Nc4ccccc4F)CC1CCC32C (stereo not drawn) | 7.11
70 | CCNC(=S)N(Cc1cc2c(C)ccc(C)c2[nH]c1=O)C1CCCC1 | 14.4
71 | CNC(=O)Cn1ncc2c(C)n(Cc3ccc(C)cc3)c(C)c2c1=O | -14
72 | COc1ccc(C(=O)NCc2ccc(N3CCN(C)CC3)cc2)cc1 | 17.6

Row | SMILES | hERG current change (%, negative = inhibition) at 1uM [%]
73 | O=C(CC1CCC1)Nc1cccc2c([N+](=O)[O-])cccc12 | 12.8
74 | Cc1ccc(C(=O)Nc2ccc(N3CCCC3)cc2)c(C)c1 | 2.64
75 | COc1ccc(CNC(=O)CCC(=O)Nc2nnc(CC(C)C)s2)cc1 | 2.5
76 | CC(=O)NC1=C(Nc2ccc(N(C)C)cc2)C(=O)c2ccccc2C1=O | 3.85
77 | COc1ccccc1COC(=O)N/C=C/c1ccco1 | 6.75
78 | CCC(=O)N(c1nnc(SCC(=O)Nc2ccc(N3CCOCC3)cc2)s1)C1CC1 | 16.4
79 | Cc1ccc(C)c(NC(=O)CS(=O)(=O)c2cn(C)c3ccccc23)c1 | -1.47
80 | O=C(Cc1ccccc1)Nc1ccc(NC(=O)c2cccc(Cl)c2)cc1 | 8.08
81 | Cc1ccc(C)c(CSCc2nc3ccccc3[nH]2)c1 | 14.2
82 | COc1ccc(-c2cc(=O)c3cc(O)ccc3o2)cc1 | 13.1
83 | CCc1ccc2nc(N3CCC(C(=O)N4CCC5(CC4)OCCO5)CC3)sc2c1 | 0.983
84 | COC(=O)c1ccc(C)c(NC(=O)CCCN2C(=O)NC(C)(C)C2=O)c1 | 11.8
85 | CC(C)CN(CCCNC(=O)CN1N=C(c2ccc(Cl)cc2)CCC1=O)CC(C)C | 8.17
86 | Cc1ccc(CN2CCN(Cc3cccc(OCCO)c3)CC2CCO)o1 (stereo not drawn) | 9.45
87 | S=c1[nH]nc(-c2ccc(Cl)cc2)n1Cc1ccccc1 | 6.98
88 | O=C(O)CCCNS(=O)(=O)c1ccccc1 | 15.3
89 | C=CCN(Cc1nc(-c2ccccc2)no1)C(=O)c1ccc2c(c1)OCO2 | -3.24
90 | [O-][n+]1onc2c1CCC(=N/O)/C2=N\Nc1ccccc1 | 12.2
91 | CCOc1ccc(-n2cc(-c3ccccc3)c3c(=S)nc[nH]c32)cc1 | 16.5
92 | O=C(c1ccccc1)c1nn(-c2ccc(Cl)cc2)c(=O)cc1C(F)(F)F | 11.8
93 | COc1ccc(OC)c(NC(=O)CNC(=O)Cn2c(C)cc3ccccc3c2=O)c1 | 14.1
